Hit rate of the full screen: of about 150,000 compounds, about 540 (0.36%) showed an effect of 50% or more. The list shows a part of the results.
Tested on: Plasmodium falciparum
Assay: Primary screen in NF54 nanoGlo assay, in single point, at 2uM, 72h; a lower Z score goes with more inhibition
Type: functional, Erythrocyte
Settings: timepoint 72 hour

Row | Compound | % Inhibition [%] | Z score
1 | Cn1cc(CNCCCOc2cccnc2)c(-c2ccc3c(c2)OCCO3)n1 | 3 | -0.65
2 | CC(C)=CCN1C(=O)[C@@H]2CC[C@H]1CN(C(=O)Cc1cccc(F)c1F)C2 | -3 | 0.51
3 | CC(NC(=O)c1n[nH]c(=O)c2ccccc12)C1CCCO1 (centres undefined) | -13 | 2.37
4 | CCOC(=O)C1CCN(C(=O)c2coc(CN(Cc3ccc4c(c3)OCO4)Cc3ccccc3Cl)n2)CC1 | -11 | 1.98
5 | O=C(Cn1nc(-c2ccc(OC(F)F)cc2)c(Cl)c1-c1ccc(OC(F)F)cc1)NC1CCCCC1 | 29 | -3.27
6 | Nc1nccc(C2CCN(C(=O)Nc3cc(F)c4c(c3)NC(=O)CO4)CC2)n1 | -9 | 1.45
7 | O=C(NC1CCCC1)c1cn(CCc2ccccc2)nn1 | 3 | -0.5
8 | Cc1noc(C)c1CN(C)C(=O)C1CC(c2ccccc2)C1 (centres undefined) | 0 | 0.02
9 | Cc1noc(C)c1S(=O)(=O)N[C@H]1CCOC[C@@H]1Oc1cccc(F)c1 | -1 | 0.15
10 | COCCN(Cc1cccs1)C[C@H](O)COCC(C)C | -11 | 1.81
11 | Cc1nc(CN2C(=O)NC3(CCC3)C2=O)oc1C | 3 | -0.39
12 | Cc1ccccc1Nc1nc(Nc2ccccc2C)nc(N2CCN(c3ccc(F)cc3)CC2)n1 | -15 | 1.98
13 | COC1CCC(C(=O)NS(=O)(=O)c2cc(F)c(Br)cc2C)C1 (centres undefined) | -3 | 0.43
14 | COc1cccc(CNC(=O)Cn2nc3ccc(C(=O)NCc4ccccc4)cn3c2=O)c1 | -10 | 1.76
15 | Cc1nc(C)c(C(=O)NC[C@H]2CCCN(Cc3cccc4nonc34)C2)s1 | -12 | 2.17
16 | Cc1cccn2c(=O)c(C(=O)NCc3cocn3)cnc12 | -12 | 1.47
17 | CCN(CCNC(=O)OC(C)(C)C)C1CC1 | 3 | -0.41
18 | CCc1cnccc1C(=O)N(CC1CCCCC1)c1ccccn1 | -12 | 1.63
19 | CCOc1ccccc1NC(=O)Cn1nc2c(N(C)C)nc3ccccc3n2c1=O | -13 | 1.8
20 | C=CCN1CC[C@@]2(CCC1=O)CN(c1cc(C#N)ccn1)CCN2C | -15 | 2.08
21 | Cn1nccc1NC(=O)[C@@H]1NCCOc2ccccc21 | -3 | 0.42

Row | Compound | % Inhibition [%] | Z score
22 | CC[C@H]1CCCN(C(C)(C)CNS(=O)(=O)CC2CCOCC2)C1 | -5 | 0.58
23 | N#Cc1ccc(N[C@H]2CCN(C(=O)c3ccccc3)C[C@@H]2O)nc1 | 3 | -0.27
24 | Cc1ccc([C@H](C)N(C)c2nc(C)cc(C#N)n2)c(C)c1 | -2 | 0.25
25 | Cn1cc(C(=O)N(CCc2cccs2)C2CCOCC2)nn1 | -1 | 0.1
26 | C=CCC[C@@H](CN1CCOCC1)Oc1cc(C)nc(-c2ccccc2)n1 | -8 | 1.34
27 | COC(CNC(=O)C1(C)CC2CCC1C2)OC (centres undefined) | 21 | -2.66
28 | Cc1ccncc1CNC(=O)N1CC(F)C1 | 1 | -0.14
29 | Cc1n[nH]c(C)c1-c1cc(C)c2nccn2c1 | 1 | -0.14
30 | CN(C)[C@@H](CNC(=O)C(C)(C)O)c1cccc(C(F)(F)F)c1 | -7 | 1.33
31 | COc1ccccc1NS(=O)(=O)c1cc(-c2n[nH]c(=O)c3c2CCCC3)ccc1OC | -10 | 1.22
32 | COc1cc(NC(=O)N2CCC(C)=C(C)C2)ccn1 | -15 | 1.51
33 | Cc1cccc(-c2ncc(C(=O)N[C@@H](C)c3ccccc3)c(N(C)C(C)C)n2)c1 | 3 | -0.57
34 | C[C@@H](c1ccccc1)N(c1ccccc1)S(=O)(=O)c1cnc2c(c1)c(=O)[nH]c(=O)n2C | -7 | 0.95
35 | Cc1ccc(N2N=C(C(=O)NCc3ccc(F)cc3)S(=O)(=O)c3cccnc32)cc1 | 8 | -1.01
36 | Cc1nn(C)c(C)c1S(=O)(=O)NC1(C(F)(F)F)CCC1 | -10 | 1.1
37 | CC(CC(O)c1cccs1)NCc1cccn1C (centres undefined) | -2 | 0.18
38 | CC[C@](O)(CNC(=O)CCOC)c1ccc(Br)cc1 | -2 | 0.22
39 | Cc1cc(CNC2CCC(C)(NC(=O)OC(C)(C)C)CC2)ccn1 (centres undefined) | -4 | 0.84
40 | COc1ccc2cc(C(=O)N[C@H]3COCC[C@@H]3OC)sc2c1 | -5 | 0.68
41 | O=c1ccc2cc(Cl)cnc2n1Cc1cc(C2CC2)no1 | -11 | 1.57
42 | Cc1ccc(NC(=O)c2ccc3c(=O)n(-c4cccc(C)c4)c(N4CCCC4)nc3c2)cc1 | 7 | -1.25

— ChEMBL document CHEMBL4888484, “Replenishing the malaria drug discovery pipeline: Screening and hit evaluation of the MMV Hit Generation Library 1 (HGL1) against asexual blood stage Plasmodium falciparum ,using a nano luciferase reporter read-out” (2022)
